Hit rate of the full screen: of about 150,000 compounds, about 540 (0.36%) showed an effect of 50% or more. This is one part of the list.
What follows are compounds tested on Plasmodium falciparum (assay: Primary screen in NF54 nanoGlo assay, in single point, at 2uM, 72h; a lower Z score goes with more inhibition). Conditions: timepoint 72 hour.
Type: functional, Erythrocyte

Row | Structure (SMILES) | % Inhibition | Z score
1 | COC(=O)N1CN(C(=O)OC)c2ccccc21 | 4% | -0.71
2 | COc1ccc(F)cc1S(=O)(=O)N(CCn1ccc(C(F)(F)F)n1)C1CCCC1 | 0% | 0.06
3 | COc1cccc(-c2cnn(C)c2N)c1C(=O)N(C(C)C)C(C)C | -2% | 0.23
4 | CC(C)(C)OC(=O)N1CCC(CN2CCc3sccc3C2)CC1 | -8% | 1.59
5 | Cn1ncc2cnn(C[C@H](O)c3ccccc3Br)c2c1=O | 2% | -0.45
6 | O=C(c1cccn2c(=O)[nH]nc12)N(Cc1ccccc1)C1CCCCC1 | 2% | -0.47
7 | CCOCC1CCN(c2nnc(C(F)(F)F)s2)CC1 | -3% | 0.6
8 | C[C@@H](C(=O)N1CCOCC1CC(O)c1ccccc1)c1ccccc1 (some centres undefined) | 16% | -2.06
9 | COCCC(=O)Nc1c(C(=O)OC)n(CCc2c[nH]c3ccccc23)c2ncc(NC3CCC3)cc12 | -2% | 0.26
10 | CCCn1ncnc1[C@H](C)NC(=O)CCc1cccc(F)c1 | -9% | 1.06
11 | CCOc1ccc(NC(=O)[C@@H]2CN(S(C)(=O)=O)c3cc(C)ccc3O2)cc1 | -9% | 1.14
12 | C=CCn1c(C)c(CC(=O)Nc2cccc(Cl)c2C)c(=O)n2nc(-c3ccc(C)cc3)nc12 | -9% | 0.92
13 | O=C(Nc1ccc(N2CCC(N3CCCCC3)CC2)cc1C(=O)O)c1cccc(Cl)c1 | -10% | 1.47
14 | COc1ccccc1N1CCN(C(=O)c2cnc(N3CCN(C)CC3)nc2C)CC1 | -2% | 0.37
15 | CCOC(=O)c1cn(Cc2ncc(CC)o2)c2nc(C)ccc2c1=O | -5% | 0.42
16 | CN1CC(NC(=O)C2COCC(=O)N2Cc2ccccc2)CC1=O (centres undefined) | -3% | 0.3
17 | O=c1c2ccccc2nnn1CN1CCN(c2ccccn2)CC1 | -4% | 0.55
18 | CCn1nc(C(=O)N2CCC(Cc3ccccc3)CC2)c2c1CCOC2 | 1% | -0.16
19 | Cc1ccc(-c2c(S(=O)(=O)c3ccccc3)cnc3cc(-c4ccc(Br)cc4)nn23)cc1 | 0% | 0.05
20 | COc1ccc(CCc2nc(N)n[nH]2)cc1 | -12% | 1.49
21 | CC(=O)NCc1nc2c(n1C)CN(C(=O)CCCc1ccccc1)CC2 | -5% | 0.52

Row | Structure (SMILES) | % Inhibition | Z score
22 | O=C([C@H]1CC(=O)N(C2CCCC2)C1)N1CC2(CCOC2)C1 | -3% | 0.6
23 | CC1(C)CC(=O)c2cn(-c3ccccc3)c(=O)c(C(=O)N3CCOCC3)c2C1 | 5% | -0.61
24 | c1csc(-c2noc(-c3ccnn3C3CCCC3)n2)c1 | 0% | 0.07
25 | CC1(C)CN(C(=O)CCn2ccnn2)CC[C@H]1C(F)(F)F | -8% | 1.72
26 | Cc1cc(=O)[nH]c(CCn2ccnc2-c2coc(-c3ccccc3)n2)n1 | 4% | -0.57
27 | Cc1ccc(-c2cccc(C(=O)N3CC[C@](C)(O)[C@H](O)C3)c2)o1 | -1% | 0.22
28 | Cc1ccc(-c2noc(-c3ccccc3S(=O)(=O)N3CCC(C)CC3)n2)cc1 | -1% | 0.11
29 | C[C@@H](Cc1cc2ccccc2o1)NC(=O)c1ccc2c(c1)OCO2 | -14% | 2.45
30 | C[C@](O)(Cc1nc(-c2ccnc(-n3cccn3)c2)no1)C1CC1 | 0% | 0.07
31 | Cn1cccc1S(=O)(=O)N1CC2C(C1)C2(C)C (centres undefined) | 0% | -0.02
32 | CN(Cc1ccccc1)[C@H]1[C@H](O)[C@H](CO)O[C@@H]1CNC1CCCCC1 | 5% | -0.63
33 | COC(=O)c1[nH]c(C)c(CN(C)C(=O)c2c(F)cccc2Cl)c1C | -5% | 0.67
34 | O=C(Cc1ccc(Br)cc1)N1CC(CN2C(=O)CCC2=O)C1 | -15% | 1.98
35 | O=C(NC1CCC(C(F)F)CC1)c1cccnn1 (centres undefined) | 0% | -0.01
36 | Cc1c(S(=O)(=O)N[C@H]2COC[C@@H]2N2CCCC2)cnn1C | -9% | 1.42
37 | CC(NC(=O)[C@H]1C[C@@H]1c1ccncc1)C1(S(C)(=O)=O)CC1 (some centres undefined) | -5% | 0.73
38 | O=C1N[C@H]2CCC[C@@H]1CN(C(=O)CCCc1cn[nH]c1)C2 | -6% | 0.62
39 | Cn1c(-c2ccccn2)nc2ccc(F)cc21 | -1% | 0.14
40 | Cc1cc(NC(=O)N(C2CC2)[C@@H](C)C(C)C)ccn1 | -8% | 1.18
41 | COCC1(CC(=O)N2CC(c3cnc4ccccc4n3)C2)CC1 | -8% | 1.45
42 | Cc1nccn1-c1cc(CNC(=O)[C@H](C)n2cncn2)ccn1 | -4% | 0.46
